Experimental data: article PMC1762419
Where two headings read alike, the source gives them in different places. No constants are given. Whether binding was seen depends on the method and setting. In cells and extracts the contact can be indirect. Some binding calls cover weakened binding; strength is not graded here. Where a sequence is shown, tags or fusion partners need not be part of it.

By UniProt entry, the sequences of proteins in these tests, tags left out.
UniProt O15160: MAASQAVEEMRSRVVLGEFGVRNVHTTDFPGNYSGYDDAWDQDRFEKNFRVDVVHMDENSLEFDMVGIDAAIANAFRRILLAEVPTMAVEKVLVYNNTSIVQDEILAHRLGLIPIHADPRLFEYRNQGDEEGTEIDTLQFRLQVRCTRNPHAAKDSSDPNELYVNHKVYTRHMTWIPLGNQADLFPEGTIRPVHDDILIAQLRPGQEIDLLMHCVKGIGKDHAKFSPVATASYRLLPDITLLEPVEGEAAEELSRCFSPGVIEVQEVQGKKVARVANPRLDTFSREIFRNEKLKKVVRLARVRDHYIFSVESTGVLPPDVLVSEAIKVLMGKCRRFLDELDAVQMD
UniProt P0DPB6: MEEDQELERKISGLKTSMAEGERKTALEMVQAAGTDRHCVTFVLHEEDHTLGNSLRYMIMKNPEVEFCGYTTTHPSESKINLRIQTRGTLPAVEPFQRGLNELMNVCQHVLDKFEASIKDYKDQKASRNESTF
UniProt Q9BUI4: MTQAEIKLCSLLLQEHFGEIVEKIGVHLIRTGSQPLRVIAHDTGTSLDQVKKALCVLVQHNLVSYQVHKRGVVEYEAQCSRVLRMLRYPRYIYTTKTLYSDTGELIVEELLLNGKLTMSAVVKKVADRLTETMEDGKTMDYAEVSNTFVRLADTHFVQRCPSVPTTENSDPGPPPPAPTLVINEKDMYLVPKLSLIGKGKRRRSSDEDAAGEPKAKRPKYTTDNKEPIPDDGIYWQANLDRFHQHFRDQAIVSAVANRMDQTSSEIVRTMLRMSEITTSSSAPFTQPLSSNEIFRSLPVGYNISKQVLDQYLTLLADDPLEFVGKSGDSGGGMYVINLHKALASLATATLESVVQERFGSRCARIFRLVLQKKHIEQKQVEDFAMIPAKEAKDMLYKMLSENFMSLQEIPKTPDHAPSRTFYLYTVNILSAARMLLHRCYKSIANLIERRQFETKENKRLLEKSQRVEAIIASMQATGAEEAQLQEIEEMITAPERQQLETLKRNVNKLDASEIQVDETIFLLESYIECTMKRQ
UniProt Q9H1D9: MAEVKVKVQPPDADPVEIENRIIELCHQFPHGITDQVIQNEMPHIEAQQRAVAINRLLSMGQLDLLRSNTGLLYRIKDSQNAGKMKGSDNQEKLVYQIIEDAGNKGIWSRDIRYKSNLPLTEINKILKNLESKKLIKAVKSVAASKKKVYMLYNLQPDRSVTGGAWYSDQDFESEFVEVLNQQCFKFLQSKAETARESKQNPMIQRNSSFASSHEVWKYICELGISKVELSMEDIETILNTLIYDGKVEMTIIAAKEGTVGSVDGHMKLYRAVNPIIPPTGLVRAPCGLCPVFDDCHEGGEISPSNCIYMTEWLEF
UniProt O15318: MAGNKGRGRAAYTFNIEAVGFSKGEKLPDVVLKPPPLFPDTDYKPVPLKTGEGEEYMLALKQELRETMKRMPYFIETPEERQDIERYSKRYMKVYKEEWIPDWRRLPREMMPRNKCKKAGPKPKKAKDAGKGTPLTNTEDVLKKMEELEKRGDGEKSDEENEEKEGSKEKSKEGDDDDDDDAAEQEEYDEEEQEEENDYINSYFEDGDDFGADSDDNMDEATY
UniProt O75575: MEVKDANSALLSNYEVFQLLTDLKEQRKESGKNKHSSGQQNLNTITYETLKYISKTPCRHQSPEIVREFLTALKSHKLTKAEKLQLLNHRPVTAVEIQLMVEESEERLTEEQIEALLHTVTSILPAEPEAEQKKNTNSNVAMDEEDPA
UniProt Q9Y2Y1: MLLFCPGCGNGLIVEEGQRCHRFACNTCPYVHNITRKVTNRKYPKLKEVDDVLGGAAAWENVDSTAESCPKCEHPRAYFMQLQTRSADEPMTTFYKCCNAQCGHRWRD
UniProt P20226: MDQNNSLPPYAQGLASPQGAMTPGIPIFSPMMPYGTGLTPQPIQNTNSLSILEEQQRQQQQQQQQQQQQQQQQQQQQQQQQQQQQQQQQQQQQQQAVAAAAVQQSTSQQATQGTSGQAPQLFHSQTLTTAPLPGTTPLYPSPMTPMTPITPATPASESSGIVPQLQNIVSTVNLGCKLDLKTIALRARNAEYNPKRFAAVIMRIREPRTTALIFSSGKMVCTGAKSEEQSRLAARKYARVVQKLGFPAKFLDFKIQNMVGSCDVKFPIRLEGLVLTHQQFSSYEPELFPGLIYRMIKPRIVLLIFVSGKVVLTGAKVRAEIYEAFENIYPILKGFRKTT

Tests used:
GST-Maf1 (human) [1] = biological target: T1, GST-Maf1 (human) (UniProt Q9H063)
T1 sequence: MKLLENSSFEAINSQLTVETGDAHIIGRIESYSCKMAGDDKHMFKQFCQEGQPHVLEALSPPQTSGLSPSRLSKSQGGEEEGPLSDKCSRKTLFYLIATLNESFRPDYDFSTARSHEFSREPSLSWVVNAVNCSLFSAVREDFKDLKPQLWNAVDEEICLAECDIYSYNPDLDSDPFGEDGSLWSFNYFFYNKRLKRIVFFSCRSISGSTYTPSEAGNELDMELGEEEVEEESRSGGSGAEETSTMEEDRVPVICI

GST-Maf1 (human) [2] = biological target: T1, GST-Maf1 (human); remark: listed apart in the source
GST-Maf1 (human) [3] = biological target: T1, GST-Maf1 (human); test: pull-down; as a3, but GST-Maf1 and in vitro translated proteins treated with RNase A (100 µg) or DNase I (4 U) for 20 min at 30°C before the binding reaction; only the target purified
GST-Maf1^1-81 (human) = biological target: T2, GST-Maf1^1-81 (human) (UniProt Q9H063)
T2 sequence: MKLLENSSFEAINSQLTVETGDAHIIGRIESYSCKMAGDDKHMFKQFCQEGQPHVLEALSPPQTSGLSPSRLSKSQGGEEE

GST-Maf1 (human) [4] = biological target: T1, GST-Maf1 (human); test: pull-down; GST pull-down with full-length GST-Maf1 in the experiment on truncated versions; data not shown; only the target purified

Question: “RPAC1 (in vitro translated) (from UniProt O15160 1-346)” was tested. Which binding (GST-Maf1 (human) [1]) did it give?
Answer: no binding

Question: For “RPAC2 (in vitro translated) (from UniProt P0DPB6 1-133)”, which binding (GST-Maf1 (human) [2]) is on record?
Answer: binds

Question: What about the binding (GST-Maf1 (human) [3]) of the same substance?
Answer: binds

Question: What about the binding (GST-Maf1^1-81 (human)) of the same substance?
Answer: binds

Question: What about the binding (GST-Maf1 (human) [4]) of the same substance?
Answer: binds

Question: For “RPC3 (in vitro translated) (from UniProt Q9BUI4 1-534)”, which binding (GST-Maf1 (human) [1]) is on record?
Answer: no binding

Question: With “RPC6 (in vitro translated) (from UniProt Q9H1D9 1-316)” as the substance, how does the binding (GST-Maf1 (human) [1]) read?
Answer: no binding

Question: For “RPC7 (in vitro translated) (from UniProt O15318 1-223)”, which binding (GST-Maf1 (human) [1]) is on record?
Answer: no binding

Question: For “RPC9 (in vitro translated) (from UniProt O75575 1-148)”, which binding (GST-Maf1 (human) [1]) is on record?
Answer: no binding

Question: For “RPC10 (in vitro translated) (from UniProt Q9Y2Y1 1-108)”, which binding (GST-Maf1 (human) [1]) is on record?
Answer: no binding

Question: Which binding (GST-Maf1 (human) [1]) does the source give for “TBP (in vitro translated) (from UniProt P20226 1-339)” here?
Answer: no binding
